In the supplement of paper PMC8792480:
Some of the results follow. Most values come without repeats; read them as rough.

Test system: NCI-H460
Assay: cell-surface PD-L1 MFI ratio relative to radiation alone (isotype-subtracted); higher = higher PD-L1 surface expression
Conditions: inducer: radiation 8 Gy; 10 µM; 24 h
Experimental: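 A549 and H460 NSCLC cells were treated with each library drug at 10 uM, then with radiation (8 Gy) or cisplatin (4 uM), and incubated for 24 h. Cell-surface PD-L1 was measured by flow cytometry as an MFI ratio: (MFI drug+inducer - MFI isotype)/(MFI inducer alone - MFI isotype). Hits were defined as ratio < 0.75.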
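Also: surface PD-L1 on NSCLC cells stained with a PE-labelled anti-human PD-L1 antibody before flow cytometry, screening a library of roughly two hundred mostly kinase and epigenetic inhibitors.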

Compound | cell-surface PD-L1 MFI ratio
CC1(C)CCC(c2ccc(Cl)cc2)=C(CN2CCN(c3ccc(C(=O)NS(=O)(=O)c4ccc(N[C@H](CCN5CCOCC5)CSc5ccccc5)c(S(=O)(=O)C(F)(F)F)c4)cc3)CC2)C1 [Navitoclax (ABT-263)] | inactive: 1.12
CC(ONC(=O)c1cc(C(F)(F)F)cc(C(F)(F)F)c1)C(=O)Nc1ccc(Cl)cc1 (stereo not drawn) | inactive: 1.25
COc1ncc(-c2ccc3nccc(-c4ccnnc4)c3c2)cc1NS(=O)(=O)c1ccc(F)cc1F | inactive: 0.798
O=C(N/N=C/c1ccc([N+](=O)[O-])o1)c1ccc(O)cc1 [Nifuroxazide] | inactive: 1.2
COc1cccc(OCCCN)c1-c1cc(Nc2cnc(C#N)cn2)n[nH]1 | inactive: 0.899
Nc1ccc2ncnc(NCCc3ccc(Oc4ccccc4)cc3)c2c1 | inactive: 1.68
Nc1nc(F)nc2c1ncn2[C@@H]1O[C@H](CO)[C@@H](O)[C@@H]1O [Fludarabine] | inactive: 1.06
COc1ccc(C2CC(c3ccccc3)=NN2c2ccc(S(N)(=O)=O)cc2)cc1 (stereo not drawn) | inactive: 1.92
c1ccc2c(-c3cnn4cc(-c5ccc(N6CCNCC6)cc5)cnc34)ccnc2c1 | inactive: 1.04
CN(C)c1cccc(-c2c3c(=O)n(-c4ccccc4Cl)[nH]c3cc(=O)n2C)c1 | inactive: 1.02
CCOC(=O)CCNc1cc(N2CCc3ccccc3CC2)nc(-c2ccccn2)n1 | inactive: 0.958
CC(C)CCN1c2nc(Nc3cc(F)c(O)c(F)c3)ncc2N(C)C(=O)C1C (stereo not drawn) | inactive: 1.62
C=CC(=O)N1CCC[C@@H](n2nc(-c3ccc(Oc4ccccc4)cc3)c3c(N)ncnc32)C1 [Ibrutinib] | inactive: 1.4
C[C@@H](Oc1cc(-c2cnn(C3CCNCC3)c2)cnc1N)c1c(Cl)ccc(F)c1Cl | inactive: 1.14
COc1ccc(CCc2nc3cc(-c4c(C)noc4C)ccc3n2C[C@H](C)N2CCOCC2)cc1Cl | inactive: 0.923
CCS(=O)(=O)N1CC(CC#N)(n2cc(-c3ncnc4[nH]ccc34)cn2)C1 | inactive: 1.06
CC(=O)O[C@H]1C(=O)[C@@]2(C)[C@H]([C@H](OC(=O)c3ccccc3)[C@]3(O)C[C@H](OC(=O)[C@H](O)[C@@H](NC(=O)c4ccccc4)c4ccccc4)C(C)=C1C3(C)C)[C@]1(OC(C)=O)CO[C@@H]1C[C@@H]2O [Paclitaxel] | inactive: 1.29
O=C(Nc1ccc2[nH]nc(-c3ccncc3)c2c1)[C@@H]1CCN(CC(=O)N2CCN(c3ccc(-c4ncccn4)cc3)CC2)C1 | inactive: 1.24
COc1cc2c(Oc3ccc4[nH]c(C)cc4c3F)ccnc2cc1OCC1(N)CC1 [Anlotinib] | inactive: 1.38

Compound | cell-surface PD-L1 MFI ratio
Cc1cnc(-c2cnc(NCCNc3ccc(C#N)cn3)nc2-c2ccc(Cl)cc2Cl)[nH]1 | inactive: 0.821
Nc1ccccc1NC(=O)c1ccc(CNC(=O)OCc2cccnc2)cc1 [Entinostat (MS-275)] | inactive: 0.774
Cc1cc(C(C)Nc2ccccc2)c2nc(N3CCOCC3)cc(=O)n2c1 (stereo not drawn) | inactive: 0.976
O=S(=O)(c1cccc2c(I)cccc12)N1CCCNCC1 | inactive: 0.988
CNC(=O)c1ccccc1Sc1ccc2c(/C=C/c3ccccn3)n[nH]c2c1 [Axitinib] | inactive: 1.39
CCc1ccc(/C=C2/SC(=S)NC2=O)cc1 | inactive: 1
CCCc1cc(C)[nH]c(=O)c1CNC(=O)c1cc(-c2ccc(N3CCN(C(C)C)CC3)nc2)cc2c1cnn2C(C)C | inactive: 0.964
CN(c1ncccc1CNc1nc(Nc2ccc3c(c2)CC(=O)N3)ncc1C(F)(F)F)S(C)(=O)=O | inactive: 1.51
CCn1c2ccccc2c2cc(-n3nncc3-c3ccccc3)ccc21 | inactive: 2.64
COCC[n+]1c2c(n(Cc3cnccn3)c1C)C(=O)c1ccccc1C2=O [YM155 (Sepantronium Bromide)] | active: 0.601
N#CC1(c2ccc(NC(=O)c3cccnc3NCc3ccncc3)cc2)CCCC1 [Apatinib] | inactive: 1.67
O=C(c1cc(Cc2n[nH]c(=O)c3ccccc23)ccc1F)N1CCN(C(=O)C2CC2)CC1 [Olaparib] | inactive: 1.18
Nc1cccc(-c2cc3c(Oc4cccc(O)c4)ncnc3[nH]2)c1 | inactive: 1.23
O=c1cc(N2CCOCC2)oc2c(-c3cccc4c3sc3ccccc34)cccc12 | inactive: 0.786
O=C(Nc1cc(C(F)(F)F)ccc1N1CCCCC1)c1ccncc1 | inactive: 1.67
C[C@@H](N)[C@H]1CC[C@H](C(=O)Nc2ccncc2)CC1 | inactive: 1.27
CC(C)N1CCN(Cc2cnc(-c3cc(-c4cccc5[nH]ccc45)cc4[nH]ncc34)o2)CC1 | inactive: 1.23
COc1ccc(Oc2cc(NCCC(F)(F)F)c3ncc(-c4ccc(C(=O)NC5CC5)c(C)c4)n3n2)c(F)c1F | inactive: 0.911
CCOc1cc2ncc(C#N)c(Nc3ccc(OCc4ccccn4)c(Cl)c3)c2cc1NC(=O)/C=C/CN(C)C [Neratinib (HKI-272)] | inactive: 1.19
